# Reference: the supplement of paper PMC12067230
# This is a noisy data set.
# Test: amyloid nucleation score relative to library mode (yeast Sup35 reporter selection) (log enrichment difference); higher = more amyloid nucleation; sequences are the first 22 residues of the Bri2 peptide extended by up to 12 random residues
# Settings: random library (experiment): 1;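 active = nucleation score significantly above 0 at FDR 0.05; inactive = not significantly above 0 or absent from output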
# 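Further: [psi-pin-] Saccharomyces cerevisiae expressing SupN fusions, induced by 100 µM Cu2SO4, selected 7 d at 30 °C without adenine and uracil, scored by deep sequencing of output versus input.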
row,Sequence,amyloid nucleation score
1,EASNCFAIRHFENKFAVETLICCFKKSEDVSEEK,1.18
2,EASNCFAIRHFENKFAVETLICDLYISISLLLPP,inactive
3,EASNCFAIRHFENKFAVETLICYFVRKSCLSSCL,inactive
4,EASNCFAIRHFENKFAVETLICTM,inactive
5,EASNCFAIRHFENKFAVETLICCIGAEAAQGVKG,4.24
6,EASNCFAIRHFENKFAVETLICTYS,inactive
7,EASNCFAIRHFENKFAVETLICECVR,inactive
8,EASNCFAIRHFENKFAVETLICQELDESGRTSTL,inactive
9,EASNCFAIRHFENKFAVETLICFCRRHELGPGCR,6.96
10,EASNCFAIRHFENKFAVETLICDLVKKRGFVSHQ,inactive
11,EASNCFAIRHFENKFAVETLICFHRKVEVRVKGR,inactive
12,EASNCFAIRHFENKFAVETLICAARRSQTAVVRE,inactive
13,EASNCFAIRHFENKFAVETLICRLGIESDSFSSR,3.17
14,EASNCFAIRHFENKFAVETLICKSWPVRLTSVGW,inactive
15,EASNCFAIRHFENKFAVETLICPVETGCIVGLRD,inactive
16,EASNCFAIRHFENKFAVETLICLGLYRCNAKLFR,-0.0194
17,EASNCFAIRHFENKFAVETLICEKVVSELTQVRA,inactive
18,EASNCFAIRHFENKFAVETLICIRLWLFAARVWT,inactive
19,EASNCFAIRHFENKFAVETLICEWSYMSM,inactive

# Same assay, conditions: random library (experiment): 2
row,Sequence,amyloid nucleation score
1,EASNCFAIRHFENKFAVETLICTTMCLMSLMVVA,inactive
2,EASNCFAIRHFENKFAVETLICNSCS,inactive
3,EASNCFAIRHFENKFAVETLICDWK,0.342
4,EASNCFAIRHFENKFAVETLICCADSSYNACIVF,5.49
5,EASNCFAIRHFENKFAVETLICGDSYLMYMALTI,inactive
6,EASNCFAIRHFENKFAVETLICRRWSCSDWHSLL,inactive
7,EASNCFAIRHFENKFAVETLICLVC,5.86
8,EASNCFAIRHFENKFAVETLICKPASMVIFFFDG,inactive
9,EASNCFAIRHFENKFAVETLICLVLRVIHLEVE,inactive
10,EASNCFAIRHFENKFAVETLICGMVFHRDVNHL,8.52
11,EASNCFAIRHFENKFAVETLICNSTIRSC,inactive
12,EASNCFAIRHFENKFAVETLICYVRWTT,inactive
13,EASNCFAIRHFENKFAVETLICTGSHVTSPHASH,-0.122

# Same assay, conditions: random library (experiment): 3
row,Sequence,amyloid nucleation score
1,EASNCFAIRHFENKFAVETLICPARWCR,inactive
2,EASNCFAIRHFENKFAVETLICVKQRIPGMGSGR,2.37
3,EASNCFAIRHFENKFAVETLICERCTYVELCH,inactive
4,EASNCFAIRHFENKFAVETLICLVNFRDLVILSS,5.35
5,EASNCFAIRHFENKFAVETLICGMMRYLERGSGW,1.9
6,EASNCFAIRHFENKFAVETLICFEELPKVQAVWS,inactive
7,EASNCFAIRHFENKFAVETLICGGRNGMNRLWFT,inactive
8,EASNCFAIRHFENKFAVETLICQIPYRMDLGSR,-0.414
9,EASNCFAIRHFENKFAVETLICCAVGTALNYTLA,7.7
10,EASNCFAIRHFENKFAVETLICGVDS,4.47
11,EASNCFAIRHFENKFAVETLICRMLPLVVVVGRC,inactive
12,EASNCFAIRHFENKFAVETLICRNKGSGFGTWGS,2.56
13,EASNCFAIRHFENKFAVETLICDLWSLLQLWRRW,inactive
14,EASNCFAIRHFENKFAVETLICAMEVLGDVSTVP,inactive
15,EASNCFAIRHFENKFAVETLICLLSFTWSLARHG,inactive
16,EASNCFAIRHFENKFAVETLICVRARCAVKIMEA,inactive
